Consider 34 variants from the GPR68 mutational scans of Howard et al. (2025).

Scores whose standard error is large were omitted. Two further conditions of the source, in which the scores hardly spread, are not listed. In variant names, del marks residues removed and ins residues inserted between the two positions. For some assays here: The data file names ogerin without a concentration.

B1: GPR68, Q15743 (parent)
chain: MGNITADNSSMSCTIDHTIHQTLAPVVYVTVLVVGFPANCLSLYFGYLQIKARNELGVYLCNLTVADLFYICSLPFWLQYVLQHDNWSHGDLSCQVCGILLYENIYISVGFLCCISVDRYLAVAHPFRFHQFRTLKAAVGVSVVIWAKELLTSIYFLMHEEVIEDENQHRVCFEHYPIQAWQRAINYYRFLVGFLFPICLLLASYQGILRAVRRSHGTQKSRKDQIQRLVLSTVVIFLACFLPYHVLLLVRSVWEASCDFAKGVFNAYHFSLLLTSFNCVADPVLYCFVSETTHRDLARLRGACLAFLTCSRTGRAREAYPLGAPEASGKSGAQGEEPELLTKLHPAFQTPNSPGSGGFPTGRLA

In data set [1] the parent is B1. The data set is described as follows: cAMP reporter score (Enrich2 score, wild type = 0); higher = more signal; HEK293T, FACS bins.
Data set [2] covers variants of B1. Nature of the data set: surface expression score (Enrich2 score, wild type = 0); higher = more signal; HEK293T, FACS bins.

Regarding V289E, the cAMP reporter score in data set [1] (pH 5.5) is -0.242; in data set [1] (pH 6) it was -0.514; in data set [1] (pH 6, modulator: ogerin) it was -0.892; in data set [1] (pH 6.5, modulator: ogerin), -1.29. In addition, the surface expression score in data set [2] is -2.65.

Turning to V289Y, the cAMP reporter score in data set [1] (pH 5.5) is 0.643; in data set [1] (pH 6), 3.86; in data set [1] (pH 6, modulator: ogerin), -0.091; in data set [1] (pH 6.5, modulator: ogerin), 3.81. Besides, the surface expression score in data set [2] was -0.952.

On to V289G, for which the cAMP reporter score in data set [1] (pH 5.5) is 1.07; in data set [1] (pH 6) it was -0.296; in data set [1] (pH 6, modulator: ogerin), 0.254; in data set [1] (pH 6.5, modulator: ogerin) it was -1.29. Further, the surface expression score in data set [2] is -1.62.

Regarding V289T, the cAMP reporter score in data set [1] (pH 5.5) came to 0.307; in data set [1] (pH 6, modulator: ogerin) it was 0.968; in data set [1] (pH 6.5, modulator: ogerin), 1.37. The surface expression score in data set [2] was -0.43.

For the variant V289D, the cAMP reporter score was -0.506 in data set [1] (pH 5.5); -0.246 in data set [1] (pH 6); -0.96 in data set [1] (pH 6, modulator: ogerin); -0.886 in data set [1] (pH 6.5, modulator: ogerin).

On to V289R, for which the cAMP reporter score in data set [1] (pH 5.5) was 0.823; in data set [1] (pH 6, modulator: ogerin) it was -0.292; in data set [1] (pH 6.5, modulator: ogerin), -0.442. Besides, the surface expression score in data set [2] is -0.812.

Take V289K: the cAMP reporter score in data set [1] (pH 5.5) was -0.014; in data set [1] (pH 6, modulator: ogerin), 0.258; in data set [1] (pH 6.5, modulator: ogerin) it was -0.017. Besides, in data set [2], the surface expression score is -1.16.

Regarding V289W, the cAMP reporter score in data set [1] (pH 5.5) is 0.221; in data set [1] (pH 6), 2.17; in data set [1] (pH 6, modulator: ogerin), -0.269; in data set [1] (pH 6.5, modulator: ogerin), 0.995. In data set [2], the surface expression score was -1.46.

In the case of V289N, the cAMP reporter score in data set [1] (pH 5.5) was 0.705; in data set [1] (pH 6, modulator: ogerin) it was -0.2; in data set [1] (pH 6.5, modulator: ogerin), 0.897. For the same variant, in data set [2], the surface expression score was -0.419.

As for V289C, the cAMP reporter score in data set [1] (pH 5.5) came to 2.66; in data set [1] (pH 6, modulator: ogerin) it was 3.15. Besides, in data set [2], the surface expression score stood at 0.887.

For V289L, the cAMP reporter score in data set [1] (pH 5.5) was -0.974; in data set [1] (pH 6, modulator: ogerin), 0.289. Besides, in data set [2], the surface expression score came out at 1.81.

Take V289Q: the cAMP reporter score was -0.936 in data set [1] (pH 5.5); -0.953 in data set [1] (pH 6, modulator: ogerin); 0.781 in data set [1] (pH 6.5, modulator: ogerin). The surface expression score in data set [2] is -1.8.

V289A: the cAMP reporter score in data set [1] (pH 5.5) was 0.281; in data set [1] (pH 6), -0.2; in data set [1] (pH 6, modulator: ogerin), -0.097; in data set [1] (pH 6.5, modulator: ogerin) it was -0.649. In addition, the surface expression score in data set [2] was -0.032.

For the variant V289M, the cAMP reporter score was found to be 1.61 in data set [1] (pH 5.5); 4.96 in data set [1] (pH 6); 1.81 in data set [1] (pH 6, modulator: ogerin). Also, the surface expression score in data set [2] is -0.402.

As to V289F, the cAMP reporter score in data set [1] (pH 5.5) was -0.096; in data set [1] (pH 6, modulator: ogerin), -0.32; in data set [1] (pH 6.5, modulator: ogerin) it was 0.53. Besides, in data set [2], the surface expression score was -0.968.

D282_V284del: the cAMP reporter score in data set [1] (pH 5.5) was -2.13; in data set [1] (pH 6), -1.1; in data set [1] (pH 6, modulator: ogerin), -1.59; in data set [1] (pH 6.5, modulator: ogerin), -0.901. The surface expression score in data set [2] is -2.58.

With C279del, the cAMP reporter score is -1.19 in data set [1] (pH 5.5); -0.748 in data set [1] (pH 6); -1.25 in data set [1] (pH 6, modulator: ogerin); -1.21 in data set [1] (pH 6.5, modulator: ogerin). Also, in data set [2], the surface expression score is -2.82.

For the variant V284_Y286del, the cAMP reporter score is -0.842 in data set [1] (pH 5.5); -0.691 in data set [1] (pH 6); -0.965 in data set [1] (pH 6, modulator: ogerin); -0.742 in data set [1] (pH 6.5, modulator: ogerin). Further, the surface expression score in data set [2] is -2.35.

On to L285_Y286insG, for which the cAMP reporter score in data set [1] (pH 5.5) is -1.31; in data set [1] (pH 6) it was -1.24; in data set [1] (pH 6, modulator: ogerin) it was -2.06; in data set [1] (pH 6.5, modulator: ogerin), -1.39. The surface expression score in data set [2] was 0.521.

N278S: the cAMP reporter score in data set [1] (pH 5.5) is -0.898; in data set [1] (pH 6, modulator: ogerin) it was -2.32; in data set [1] (pH 6.5, modulator: ogerin) it was -0.905. The surface expression score in data set [2] turned out to be 0.927.

In the case of N278R, the cAMP reporter score in data set [1] (pH 5.5) was -1.84; in data set [1] (pH 6.5, modulator: ogerin), -1.39. In data set [2], the surface expression score was 0.859.

Consider N278V, for which the cAMP reporter score is -1.07 in data set [1] (pH 5.5); -1.38 in data set [1] (pH 6); -1.65 in data set [1] (pH 6, modulator: ogerin); -0.968 in data set [1] (pH 6.5, modulator: ogerin). The surface expression score in data set [2] came to 0.197.

Consider N278Q, for which the cAMP reporter score was -0.109 in data set [1] (pH 5.5); -0.713 in data set [1] (pH 6); -0.33 in data set [1] (pH 6, modulator: ogerin); -0.66 in data set [1] (pH 6.5, modulator: ogerin). The surface expression score in data set [2] is -0.435.

As to N278W, the cAMP reporter score was -0.732 in data set [1] (pH 5.5); -0.642 in data set [1] (pH 6); -1.88 in data set [1] (pH 6, modulator: ogerin); -1.37 in data set [1] (pH 6.5, modulator: ogerin). Also, the surface expression score in data set [2] was -2.33.

Consider N278P, for which the cAMP reporter score in data set [1] (pH 5.5) was -0.196; in data set [1] (pH 6), 0.139; in data set [1] (pH 6, modulator: ogerin), -0.52; in data set [1] (pH 6.5, modulator: ogerin), -0.16. In addition, in data set [2], the surface expression score is -0.532.

For the variant N278Y, the cAMP reporter score is -2.27 in data set [1] (pH 5.5); -1.23 in data set [1] (pH 6); -1.28 in data set [1] (pH 6, modulator: ogerin); -1.76 in data set [1] (pH 6.5, modulator: ogerin). For the same variant, in data set [2], the surface expression score is -1.15.

In the case of N278M, the cAMP reporter score was -1.05 in data set [1] (pH 5.5); -0.898 in data set [1] (pH 6); -0.827 in data set [1] (pH 6, modulator: ogerin); -0.997 in data set [1] (pH 6.5, modulator: ogerin). In addition, the surface expression score in data set [2] was -1.87.

On to T292_T293insGS, for which the cAMP reporter score in data set [1] (pH 5.5) was -1.64; in data set [1] (pH 6), -1.17; in data set [1] (pH 6, modulator: ogerin), -1.23; in data set [1] (pH 6.5, modulator: ogerin) it was -1.43. In addition, the surface expression score in data set [2] stood at 0.229.

For the variant A281_D282del, the cAMP reporter score in data set [1] (pH 5.5) is -1.45; in data set [1] (pH 6) it was -1.11; in data set [1] (pH 6, modulator: ogerin), -1.55; in data set [1] (pH 6.5, modulator: ogerin), -1.6. Moreover, the surface expression score in data set [2] was -1.94.

E291_T292insGS: the cAMP reporter score is -0.944 in data set [1] (pH 5.5); -1.51 in data set [1] (pH 6, modulator: ogerin); -0.616 in data set [1] (pH 6.5, modulator: ogerin). The surface expression score in data set [2] worked out at 0.046.

For D282_P283insGS, the cAMP reporter score in data set [1] (pH 5.5) is -1.34; in data set [1] (pH 6, modulator: ogerin), -1.07; in data set [1] (pH 6.5, modulator: ogerin) it was -2.52. For the same variant, the surface expression score in data set [2] is -2.82.

For V280_A281del, the cAMP reporter score in data set [1] (pH 5.5) was -1.34; in data set [1] (pH 6), 0.096; in data set [1] (pH 6.5, modulator: ogerin), 0.177. Also, the surface expression score in data set [2] is -1.11.

For V284_L285del, the cAMP reporter score is -0.521 in data set [1] (pH 5.5); -0.555 in data set [1] (pH 6); -1.37 in data set [1] (pH 6, modulator: ogerin); -0.764 in data set [1] (pH 6.5, modulator: ogerin). For the same variant, in data set [2], the surface expression score is -1.55.

S290_E291insGSG: the cAMP reporter score in data set [1] (pH 5.5) is -0.267; in data set [1] (pH 6), -0.694; in data set [1] (pH 6, modulator: ogerin), -0.744; in data set [1] (pH 6.5, modulator: ogerin), -0.575. The surface expression score in data set [2] was 0.444.
